From patent US7351409B2, “Tumor antigens and CTL clones isolated by a novel procedure” (Ludwig Institute for Cancer Research, priority 1998, dated 2008)

Test system: clone LB1137 H4.13
Assay: Peptide cytotoxicity assay, autologous target cells
Type: cell-based, human
Conditions: effector to target ratio of 10:1
Source text: The sequence of the putative fragment of the MAGE-A4 protein encoded by this region was screened for prediction of an HLA-a2 binding peptide with the software available at the website of the National Institute of Health. Peptide […] (SEQ ID N O: 44) (MAGE-A4 230-239) had the highest score. It was synthesized and tested in a cytotoxicity assay at an effector to target ratio of 10:1. Peptide

Sequence: GVYDGREHTV [MAGE-A4 peptide presented by HLA-A2]
- sensitization of autologous target cells to lysis by CTL clone: sensitize
